# Data taken from publication PMC4336329 (PLoS ONE, 2015).
# Screen size: about 310,000 compounds; about 2,200 (0.71%) showed an effect of 50% or more. Effects have a minus sign here. The list shows a part of the results.
# Target: human ether-à-go-go-related gene (hERG) potassium channel (human, UniProt Q12809)
# Assay: primary screen, population patch clamp on CHO cells stably expressing hERG
# human ether-à-go-go-related gene (hERG) potassium channel, sequence (Q12809 whole entry, looked up): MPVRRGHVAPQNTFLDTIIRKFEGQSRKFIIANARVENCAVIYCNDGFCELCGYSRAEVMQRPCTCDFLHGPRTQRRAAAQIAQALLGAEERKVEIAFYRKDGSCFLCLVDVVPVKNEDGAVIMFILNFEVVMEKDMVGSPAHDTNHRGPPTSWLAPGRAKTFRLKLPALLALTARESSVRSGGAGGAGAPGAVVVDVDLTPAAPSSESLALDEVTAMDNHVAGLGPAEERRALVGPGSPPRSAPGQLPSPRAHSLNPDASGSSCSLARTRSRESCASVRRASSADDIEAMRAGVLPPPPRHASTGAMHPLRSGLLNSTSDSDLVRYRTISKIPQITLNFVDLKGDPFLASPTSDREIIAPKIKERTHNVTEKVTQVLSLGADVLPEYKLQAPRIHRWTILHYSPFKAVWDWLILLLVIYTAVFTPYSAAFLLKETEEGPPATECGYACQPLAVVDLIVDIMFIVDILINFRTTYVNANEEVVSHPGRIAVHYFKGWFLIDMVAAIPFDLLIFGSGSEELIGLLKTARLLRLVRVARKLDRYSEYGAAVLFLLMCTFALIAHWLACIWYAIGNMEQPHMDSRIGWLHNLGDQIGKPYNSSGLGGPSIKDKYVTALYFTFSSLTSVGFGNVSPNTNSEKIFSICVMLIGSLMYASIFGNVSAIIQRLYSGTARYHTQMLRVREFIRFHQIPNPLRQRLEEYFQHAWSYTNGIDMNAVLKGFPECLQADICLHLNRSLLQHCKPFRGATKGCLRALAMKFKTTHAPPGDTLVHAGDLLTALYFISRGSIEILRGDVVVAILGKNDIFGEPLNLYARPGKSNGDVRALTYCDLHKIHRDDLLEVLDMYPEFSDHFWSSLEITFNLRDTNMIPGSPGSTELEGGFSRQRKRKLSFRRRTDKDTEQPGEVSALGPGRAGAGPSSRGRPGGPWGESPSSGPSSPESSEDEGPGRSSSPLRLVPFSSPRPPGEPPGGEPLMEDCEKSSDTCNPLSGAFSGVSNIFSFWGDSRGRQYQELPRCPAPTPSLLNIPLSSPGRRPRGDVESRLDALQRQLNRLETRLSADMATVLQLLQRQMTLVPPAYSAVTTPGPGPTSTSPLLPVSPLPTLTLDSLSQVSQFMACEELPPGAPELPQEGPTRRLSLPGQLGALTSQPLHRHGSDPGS
row,Structure (SMILES),"hERG current change (%, negative = inhibition) at 1uM"
1,CCCCNC(=S)Nc1ccc(Oc2ccccc2)cc1,5.29%
2,CC(NS(=O)(=O)c1ccccc1)C(c1cccs1)N1CCN(C)CC1 (stereo not drawn),14.3%
3,c1ccc(-c2nn3c(Cn4cnc5ccccc54)nnc3s2)cc1,-0.727%
4,Cc1cc(-c2ccc(Cl)cc2Cl)c(C#N)c(=O)[nH]1,9.39%
5,CN(C)S(=O)(=O)c1cccn1-c1ncc(C(F)(F)F)cc1Cl,2.65%
6,Cc1ccc(-n2c(SCc3ccc(C#N)cc3)nnc2-c2ccccn2)cc1,-6.99%
7,COCCn1c(SCC(=O)N2CCCCCC2)nnc1-c1ccco1,18.6%
8,Cc1nc(SCC(=O)O)c(C#N)c(C)c1CC(=O)c1ccccc1,14.7%
9,NC(=S)N/N=C/c1ccccc1O,13%
10,CCOC(=O)N1C2=NC(C(=O)OC)=C(C(=O)OC)[C@@H]3N(C)c4ccc(OC)cc4[C@]23C[C@H]1C(=O)OC,12.8%
11,COC(=O)Nc1c(-c2ccccc2)nc2ccccn12,9.79%
12,CCCCN(Cc1cc2cc(OC)ccc2[nH]c1=O)C(=O)c1ccco1,9.48%
13,CC(C)C(NS(=O)(=O)c1ccc2c(c1)Cc1cc(S(=O)(=O)NC(C(=O)O)C(C)C)ccc1-2)C(=O)O (stereo not drawn),15.7%
14,O=C(O)C1CCCN1c1ncnc2ccccc12 (stereo not drawn),18.7%
15,Cc1ccc(N/C(N)=N/c2nc(CSc3nnc(N)s3)cc(=O)[nH]2)cc1,14.5%
16,CCN(CC)S(=O)(=O)c1ccc2oc(C(=O)N3CCc4ccccc4C3)c(C)c2c1,-5.15%
17,CC(C)N1CCc2c(sc(NC(=O)c3ccc(S(=O)(=O)N4CCc5ccccc54)cc3)c2C(N)=O)C1.Cl,0.65%
18,COc1ccc(CCNC(N)=S)cc1OC,14.7%
19,C/C(=N\N1CCN(C2c3ccccc3-c3ccccc32)CC1)c1cccnc1,5.87%
20,Cc1ccc(C(=O)COC(=O)c2ccc(-c3cnc4ccccc4n3)cc2)cc1C,-2.25%
21,COc1cc(C(=O)OC(C)CN2CCOCC2)cc(OC)c1OC (stereo not drawn),7.53%
22,COCCn1nnnc1C(C(C)C)N1CCN(C(=O)c2ccco2)CC1.Cl (stereo not drawn),2.85%
23,O=c1c(-c2ccc(O)cc2)coc2cc(O)cc(O)c12,13.4%

row,Structure (SMILES),"hERG current change (%, negative = inhibition) at 1uM"
1,NC(=O)c1ccccc1N=Cc1ccccn1,5.54%
2,CCC(/C=N/NC(=O)CCCCC(=O)N/N=C/C(CC)CC)CC,1.99%
3,COc1ccc(NS(=O)(=O)c2ccc(N)c(C(=O)O)c2)cc1,8.84%
4,COC(=O)c1scc(C)c1NC(=O)c1cccc(C#N)c1,9.03%
5,CCOC(=O)c1oc2cccc(O)c2c1C,5.17%
6,COC(=O)c1scc(C)c1NC(=O)C(Cl)c1ccccc1 (stereo not drawn),11.2%
7,C=CCc1ccccc1OCC(=O)NNC(=S)NCc1ccccc1,4.14%
8,Cc1cc(C)c2nc(SCC(=O)NCC3CCCO3)c(C#N)cc2c1 (stereo not drawn),11.5%
9,O=C1NS(=O)c2cc([N+](=O)[O-])cc([N+](=O)[O-])c21 (stereo not drawn),15.3%
10,O=C(CCNc1cccc(C(F)(F)F)c1)c1ccco1,11.1%
11,Cc1ccc(-n2cc(CNCCn3nc(C)cc3C)c(-c3ccc(F)cc3)n2)cc1,3.16%
12,Cc1occc1C(=O)Nc1ccc2c(c1)OCO2,-6.03%
13,COc1cc(OC)c(C(=O)OC(C)C(=O)Nc2cc(C(F)(F)F)ccc2Cl)cc1OC (stereo not drawn),9.7%
14,Cc1cc2occ(CC(=O)N(C)CC(=O)Nc3c(C)cccc3C)c2cc1C,16.8%
15,Cc1ccc(OCCOc2cccc(C=C3C(=O)NC(=O)NC3=O)c2)c(C)c1,11.9%
16,COC(=O)c1c(C)n(Cc2ccco2)c2ccc(O)cc12,-0.551%
17,COC(=O)CSC1=NS(=O)(=O)c2ccccc21,7.75%
18,Cn1c(=O)c2c(nc(NCc3cccnc3)n2Cc2ccccc2Cl)n(C)c1=O,4.67%
19,O=C(Nc1cc(Cl)ccc1O)c1cc(-c2ccco2)on1,15.1%
20,COc1ccc(C(=O)NC2CC2)cc1OC1CCN(Cc2ccccc2F)CC1,-64.5%
21,C/C(=N/NS(=O)(=O)c1cc(C)ccc1C)c1c[nH]c2ccccc12,4.19%
22,CCc1cc(C(=O)N2CCN(c3ccccn3)CC2)sc1C,7.26%
23,CC1CCC(CN2CCN=C2Nc2ccccc2)CC1 (stereo not drawn),7.55%

row,Structure (SMILES),"hERG current change (%, negative = inhibition) at 1uM"
1,CCOC(=O)c1nnc(-c2cccs2)nc1Oc1ccc(Cl)cc1,11%
2,COCCN(CCOC)S(=O)(=O)c1ccc(C(=O)Nc2nnc(C)o2)cc1,9.36%
3,CCCCC(CCC(=O)Nc1ccccc1C(=O)OCC)C(=O)O (stereo not drawn),3.35%
4,COc1ccccc1C(=O)N1CCN(C(=O)c2ccncc2)CC1,0.151%
5,COc1cccc2oc3cc(C#Cc4ccccn4)ccc3c(=O)c12,11.1%
6,O=C(Nc1ccc2c(c1)OCO2)c1cc(-c2ccc(O)cc2)on1,18.4%
7,Cc1ccc(C)c(N=Cc2c(O)c3ccccc3oc2=O)c1,15.5%
8,CN1CCN(C(=O)c2ccc3c(Cl)c4c(nc3c2)CCCC4)CC1,-0.735%
9,Cc1cccc(/C=N/NC(=O)c2c(-c3ccccc3)noc2C)c1O,6.85%
10,Cc1cccc(NC(=O)CSc2c3c(nc4ccccc24)CCC3)n1,-1.85%
11,CCOC(=O)C1CCN(CC(=O)Nc2cc(S(=O)(=O)N3CCOCC3)ccc2C)CC1.O=C(O)C(=O)O,3.87%
12,C/C(=N/NC(=O)c1ccc(NC(=O)c2ccc(F)cc2)cc1)c1ccccc1,3.01%
13,O=c1/c(=C/c2ccco2)sc2nc(-c3ccccc3Br)nn12,10.4%
14,O=C(c1ccco1)N1CCN(S(=O)(=O)c2cccc([N+](=O)[O-])c2)CC1,0.797%
15,CC1CCN(C(=O)c2[nH]cnc2C(=O)NCCCCCNC(=O)OC(C)(C)C)CC1,14.7%
16,O=C(Nc1cccnc1)c1coc(=O)c2ccccc12,9.35%
17,CCN(Cc1ccc2c(c1)OCCO2)S(=O)(=O)c1ccc(NC(C)=O)cc1,1.36%
18,Cc1ccc(S(=O)(=O)CCc2nnc(NC(=O)c3ccccn3)s2)cc1,7.42%
19,Cc1nc(NC(=O)c2ccccc2)sc1C,16.6%
20,CCOc1ccccc1C(=O)NC(C(=O)NCc1ccccc1OC)C(C)C (stereo not drawn),-4.79%
21,Cc1ccc(C(=O)N[C@H](C(=O)N2CCN(c3ccccc3F)CC2)C(C)C)cc1,-1.2%
22,CCOc1cc(N2CCOCC2)c(OCC)cc1NC(=O)C(C)(C)C,11.3%
23,CC1=Nc2ccccc2N=C(NC(=O)c2ccccc2)C1c1ccc(Cl)cc1 (stereo not drawn),19.7%

row,Structure (SMILES),"hERG current change (%, negative = inhibition) at 1uM"
1,CCCC(C(=O)Nc1ccncc1)c1ccccc1 (stereo not drawn),17.3%
2,NC(=O)c1cc(S(=O)(=O)Nc2ccc(OC(F)(F)F)cc2)cs1,7.6%
3,Cc1c(CC(=O)NCCCCCC(=O)O)c(=O)oc2cc3c(cc12)CCC(C)(C)O3,11.6%
4,O=C(Nc1ccc2oc(-c3ccccc3)nc2c1)c1cccnc1,5.6%
5,Cc1ccc(S(=O)(=O)NCCC(=O)OCC(=O)Nc2cccc(Cl)c2)cc1,-5.44%
6,Cl.Fc1ccc(COc2ccccc2CNCc2ccncc2)cc1,2.16%
7,Cc1cc(C(=O)C[N+]23CCN(CC2)CC3)c(C)n1-c1ccc(Br)cc1.[Cl-],9.53%
8,Cc1ccc2c(c1)[nH]c1c(=O)n(Cc3ccco3)cnc12,9.96%
9,CC(C)(C)CN1C(N)=NC[C@@H]1c1ccccc1,20.2%
10,COc1ccc(S(=O)(=O)Nc2ccncc2)c(C)c1C,15.6%
11,CCCCCCN=C(CC)c1c(O)n(CCCC)c(=O)[nH]c1=O,-9.05%
12,CCN(CC)CCCNC(=O)c1c(O)c2c([nH]c1=O)CCCC2,2.87%
13,CN(C)CCNc1nc2c(c(=O)[nH]c(=O)n2C)n1CCCc1ccccc1,-4.68%
14,COc1cc(CCC(=O)OCC(=O)Nc2c(Cl)cccc2Cl)cc(OC)c1OC,11.4%
15,O=C(c1ccc(Cl)c(S(=O)(=O)N2CCOCC2)c1)N1CCOCC1,4.65%
16,S=c1[nH]nc(C2CCCCC2)n1/N=C/c1cccc(Cl)c1Cl,-5.17%
17,O=C(CCn1c(=O)[nH]c2ccsc2c1=O)NCc1ccc(F)cc1,5.81%
18,O=C(NP(=O)(N1CCOCC1)N1CCOCC1)C1=C(N2CCOCC2)/C(=C\c2ccccc2)CC1,16.5%
19,COc1ccc(C)cc1NC(=O)C(=O)c1cn(CC(=O)N2CCCC2)c2ccccc12,4.64%
20,COc1ccccc1NC(=O)Nc1ccc2c(c1)nnn2C,6.64%
21,CSCC(=O)N1CCCC(N2CCN(c3ccc(F)cc3)CC2)C1 (stereo not drawn),0.918%
